# Assay results reported in PubChem BioAssay AID1347165 (National Center for Advancing Translational Sciences (NCATS), 2019).
# Where “and” joins values, the source holds several entries; their conditions need not be identical. Identical values can stand only once. Out of some 220,000 compounds screened, about 5,700 (2.6%) were called active. The shares of active, inactive and inconclusive entries below differ from those in the screen. Calls come from the whole dose curve; as a rule, active = well fitted inhibition curve with a large enough effect; inconclusive = small, poorly fitted or top-dose-only effect; inactive = no such curve, though single readings can be large or run the other way. Where the call is inconclusive, the potency comes from a doubtful curve fit.
# Molecular target: Lysine-specific demethylase 5B (Homo sapiens) (UniProt Q9UGL1)
# Assay: Primary screen for KDM5B Histone Demethylases FDH-coupled qHTS; note: nearly all actives have a fitted effect of over 70% in size; for activity change, negative = inhibition: 0% is about no effect
# Conditions: FDH-coupled NADH fluorescence (FDH is formaldehyde dehydrogenase); activity change, negative = inhibition: at 57.7 µM (top of the series) unless noted
# Procedure, shortened: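 KDM5BΔAP (200 nM final) in 50 mM HEPES pH 7.5, 0.01% Tween-20 was preincubated 10 min at RT with compound over a concentration range. Substrate mix (H3K4me3 12.5 µM, α-KG 25 µM, Fe²⁺, ascorbate, NAD⁺, FDH) was added, and NADH fluorescence change over 30 min gave dose-response curves.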
# Potency is the fitted concentration of half-maximal effect; tags give direction and shape of the fitted curve.
# Sequence of UniProt Q9UGL1 (Q9UGL1 whole entry, looked up): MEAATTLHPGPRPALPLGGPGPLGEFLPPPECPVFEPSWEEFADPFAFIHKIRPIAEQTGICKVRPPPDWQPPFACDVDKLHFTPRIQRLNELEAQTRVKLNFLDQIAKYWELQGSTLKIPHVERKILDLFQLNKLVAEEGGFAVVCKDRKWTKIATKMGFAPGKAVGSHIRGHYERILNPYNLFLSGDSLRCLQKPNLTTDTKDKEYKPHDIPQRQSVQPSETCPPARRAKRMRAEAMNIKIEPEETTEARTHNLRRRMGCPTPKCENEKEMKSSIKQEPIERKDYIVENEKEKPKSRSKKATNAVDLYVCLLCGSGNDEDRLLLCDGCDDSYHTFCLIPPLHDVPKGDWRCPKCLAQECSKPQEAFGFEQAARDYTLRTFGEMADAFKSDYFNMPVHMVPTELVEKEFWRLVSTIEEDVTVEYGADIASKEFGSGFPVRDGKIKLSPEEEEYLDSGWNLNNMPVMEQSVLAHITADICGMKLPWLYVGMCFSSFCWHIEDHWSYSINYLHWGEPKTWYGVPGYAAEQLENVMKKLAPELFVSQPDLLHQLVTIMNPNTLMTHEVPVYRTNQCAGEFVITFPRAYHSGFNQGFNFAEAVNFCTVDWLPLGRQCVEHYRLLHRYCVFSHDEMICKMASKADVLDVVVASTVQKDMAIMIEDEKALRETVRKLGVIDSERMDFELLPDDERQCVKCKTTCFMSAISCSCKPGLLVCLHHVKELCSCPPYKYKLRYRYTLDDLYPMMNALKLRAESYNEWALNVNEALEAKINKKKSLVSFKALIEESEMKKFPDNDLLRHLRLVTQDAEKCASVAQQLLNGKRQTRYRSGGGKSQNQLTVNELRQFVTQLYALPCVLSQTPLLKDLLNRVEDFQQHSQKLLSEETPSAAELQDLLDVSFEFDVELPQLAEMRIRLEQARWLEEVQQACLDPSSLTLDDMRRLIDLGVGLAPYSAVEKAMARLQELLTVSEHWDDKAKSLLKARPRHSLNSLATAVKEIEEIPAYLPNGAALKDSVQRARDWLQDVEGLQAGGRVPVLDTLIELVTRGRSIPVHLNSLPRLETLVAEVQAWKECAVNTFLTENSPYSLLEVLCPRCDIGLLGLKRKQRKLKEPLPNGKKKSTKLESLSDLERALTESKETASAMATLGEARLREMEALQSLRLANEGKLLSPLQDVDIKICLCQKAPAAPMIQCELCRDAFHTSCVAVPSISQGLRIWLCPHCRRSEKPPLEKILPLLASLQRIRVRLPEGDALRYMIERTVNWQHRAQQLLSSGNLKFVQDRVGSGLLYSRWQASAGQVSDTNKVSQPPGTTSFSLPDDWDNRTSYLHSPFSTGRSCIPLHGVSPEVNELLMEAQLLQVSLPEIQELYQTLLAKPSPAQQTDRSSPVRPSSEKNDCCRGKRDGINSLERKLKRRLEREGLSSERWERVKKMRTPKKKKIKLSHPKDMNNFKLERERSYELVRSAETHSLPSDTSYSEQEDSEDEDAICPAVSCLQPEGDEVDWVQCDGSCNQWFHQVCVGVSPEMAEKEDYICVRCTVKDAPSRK
SMILES,Potency,"activity change, negative = inhibition"
COc1ccc(C(=O)N2CCC(n3cc(-c4nc(-c5ccccc5)no4)nn3)C2)cc1F (stereo unspecified),"inconclusive: 8.91 µM [inhibitor, single point]",
O=C(NCc1nnc2c(-c3nc(C4CC4)no3)cccn12)c1c[nH]c2ccccc12,"inconclusive: 22.4 µM [inhibitor, partial curve, poor fit]",
CCOC(=O)/C(C#N)=C\NC(C)=O,inactive,
COC(=O)c1ccc(CNC(=O)C(Sc2ccccc2)c2ccccc2)cc1 (stereo unspecified),inactive,
CCOC(=O)c1cc2cc(Oc3ccc4[nH]c(C(=O)OCC)cc4c3)ccc2[nH]1,"inconclusive: 28.2 µM [inhibitor, partial curve, poor fit]",
Cc1c(C)n(Cc2ccc(F)cc2)c2ccc(C(=O)N3CCN(c4ccc(Cl)cc4)CC3)cc12,"inconclusive: 15.8 µM [inhibitor, partial curve, poor fit]",
CC(C)(C)c1ccc(C(=O)N/N=C/Cc2ccccc2)cc1,inactive,
COc1cccc(C2C(C(=O)Nc3ccc(Cl)cc3)=C(C)Nc3c(C(=O)Nc4ccccc4)cnn32)c1OC (stereo unspecified),"inconclusive: 31.6 µM [inhibitor, partial curve, poor fit]",
COc1cc2ncnc(NCc3cc(F)ccc3F)c2cc1OC,inactive,
Cc1cc(C)cc(NC(=O)c2sc3nc(-c4ccccc4)cn3c2C)c1,"inconclusive: 39.8 µM [inhibitor, single point]",
O=C(c1ccc(Cl)cc1)C(CN1CCCCCC1)c1ccccc1 (stereo unspecified),"inconclusive: 39.8 µM [inhibitor, partial curve, poor fit]",
COc1ccc(CCNC(=O)Cc2c(C)c3c(cc(C)c4c(C)c(C)oc43)oc2=O)cc1OC,inactive,
COc1ccc(Cl)cc1NC(=O)CCCn1nc(-n2cccc2)c2c(C)cc(C)nc21,"inconclusive: 39.8 µM [inhibitor, single point]",
Cc1ccc(S(=O)(=O)c2nc(-c3ccco3)oc2SC(C)C)cc1,"inconclusive: 25.1 µM [inhibitor, single point] and inconclusive: 35.5 µM [inhibitor, partial curve, poor fit]",
CC(C)c1noc(-c2cccn3c(CNC(=O)c4ccc(Cl)cc4)nnc23)n1,active: 25.1 µM,
CCc1cc(NC(CCO)c2ccccc2)n2nc(C)c(C)c2n1 (stereo unspecified),"inconclusive: 17.8 µM [inhibitor, single point]",
c1ccc(Nc2ccccn2)nc1,inactive,
CCOc1ccc(CNC(=O)CN2C(=O)CCn3nc(-c4cn(C)c5ccccc45)cc32)cc1OC,"inconclusive: 28.2 µM [inhibitor, single point]",
O=C(NCc1cccs1)c1nn(-c2ccccc2)nc1CO,inactive,
CCc1cccc2c(C=O)c[nH]c12,inactive,
Cc1c(-c2ccccc2)oc2c(C(=O)OCC(=O)N3CCNC3=O)cccc2c1=O,inactive,
Cc1cc(OCC(=O)Nc2cnn(CCCC(=O)O)c2)ccc1Cl,"inconclusive: 31.6 µM [inhibitor, single point]",

SMILES,Potency,"activity change, negative = inhibition"
CCCN1CCCC2(CCN(C(=O)c3cc(CC)[nH]c(=O)c3)C2)C1=O (stereo unspecified),"inconclusive: 28.2 µM [inhibitor, partial curve, poor fit]",
COc1ccc(-c2cc(C(=O)N/N=C(\C)c3cccnc3)c3ccccc3n2)c(OC)c1,"inconclusive: 39.8 µM [inhibitor, single point]",
CCCCCC(=O)Nc1nc2c(s1)C[C@@H]1[C@](C)(CO)[C@H](O)CC[C@@]1(C)[C@@H]2CC(=O)NCCOC,inactive,
CCOC(=O)C1CCN(C(=O)CSc2n[nH]c(-c3ccccc3Cl)n2)CC1,"inconclusive: 50.1 µM [inhibitor, single point]",
Cc1ccc(C(=O)N2CCC3(CC2)N=C(c2cccc(Br)c2)NO3)cc1F,"inconclusive: 22.4 µM [inhibitor, partial curve, poor fit]",
CCc1ccccc1CN1CCCCC12Cc1ccccc1CNC2=O (stereo unspecified),"inconclusive: 50.1 µM [inhibitor, partial curve]",
COc1ccc(C)cc1NC(=O)c1cc2c(s1)-c1ccccc1SC2,"inconclusive: 31.6 µM [inhibitor, partial curve, poor fit]",
COC(=O)[C@]12C[C@H](CC(=O)N3CCC(c4ccccc4)CC3)C(=O)N(Cc3ccco3)C1=C[C@H](C1CCCC1)O[C@@H]2C,inactive,
Cc1nn(-c2ccccc2)c(-n2cccc2)c1C(=O)NCc1ccccc1Cl,"inconclusive: 2.51 µM [inhibitor, partial curve, poor fit]",
COC(=O)/C=C/C(=O)c1ccc(OC)cc1,"inconclusive: 25.1 µM [inhibitor, partial curve, poor fit]",
Cc1sc2c(c1C)CN(C(C)C)CN2C(=O)c1ccccc1,inactive,
CCCC[n+]1c(NCc2cc(Cl)ccc2[O-])[nH]c2ccccc21,inactive,
COc1cc(NC(=O)c2ccc(N3CC4CC(C3)[C@H]3CCCC(=O)N3C4)nc2)cc(OC)c1 (stereo partly specified),"inconclusive: 39.8 µM [inhibitor, partial curve, poor fit]",
CC1(C)CC(=O)c2cc(C#N)c(=O)n(-c3cccc(F)c3)c2C1,"inconclusive: 39.8 µM [inhibitor, partial curve, poor fit]",
CCN(CC)S(=O)(=O)c1ccc2c(c1)c(=O)c(C(=O)N(C)Cc1ccccc1)cn2C,"inconclusive: 31.6 µM [inhibitor, partial curve, poor fit]",
CC(C)Cc1cc(C(=O)N[C@H]2CN(C(=O)N(C)C)C[C@@H]2C2CC2)nc(N)n1,"inconclusive: 25.1 µM [inhibitor, partial curve, poor fit]",
Cc1cc(C)cc(NC(=O)CCc2ncc(-c3ccc(Cl)cc3)o2)c1,inactive,
COc1ccc(C2Cn3nnc(-c4noc(-c5ccco5)n4)c3CO2)cc1 (stereo unspecified),"inconclusive: 35.5 µM [inhibitor, single point]",
Cc1cccc(-c2nc3c(cnn3-c3ccccc3)c(=O)n2-c2cccc(Cl)c2)c1,"inconclusive: 31.6 µM [inhibitor, partial curve, poor fit]",
Cc1cccc(C(=O)NCCc2c[nH]c3ccc(Cl)cc23)c1,inactive,
CC(C)(C)c1ccc(C(=O)Nc2nnc(C3=COCCO3)o2)cc1,"inconclusive: 25.1 µM [inhibitor, partial curve, poor fit]",
CC(C)NC(=O)CN1CCN(C(=O)c2cc3cc(Br)ccc3[nH]2)CC1,inactive,

SMILES,Potency,"activity change, negative = inhibition"
CC(=O)c1cc(CN2CCC3(CC2)CN(CC(C)c2ccccc2)C(=O)O3)cs1 (stereo unspecified),"inconclusive: 31.6 µM [inhibitor, partial curve, poor fit]",
COc1ccc(OC)c(NCc2cccn2-c2nnc(N3CCC(C)CC3)s2)c1,"inconclusive: 15.8 µM [inhibitor, partial curve, poor fit]",
Cc1ccc(CNC(C)c2ccccc2)s1 (stereo unspecified),,inconclusive: -33.4% [inhibitor]
CCOc1ccc2c(c1)[C@@H]1C=CC[C@@H]1[C@H](c1ccccc1Cl)N2,"inconclusive: 1.78 µM [inhibitor, full curve, poor fit]",
CC1CCC(NC(=O)CSCc2coc(-c3ccc(Cl)cc3)n2)CC1 (stereo unspecified),inactive,
CC(=O)N1CCN(c2ccc3nnc(-c4ccc(C)cn4)n3n2)CC1,inactive,
Cc1ccccc1-c1nc2c3c4c(sc3ncn2n1)CN(C)CC4,"inconclusive: 35.5 µM [inhibitor, single point]",
COc1ccc(-c2ccnc3nc(-c4ccco4)nn23)c(F)c1,active: 15.8 µM,
Cc1ccc2oc(-c3cc(NC(=O)CC(C)C)ccc3O)nc2c1,inactive,
CC(=O)Nc1ccc2nc3c(=O)n(C)c(=O)n(C)c3nc2c1,"inconclusive: 28.2 µM [inhibitor, partial curve, poor fit]",
Cc1nc(-c2cccc(F)c2)sc1CCNC(=O)c1ccc(F)c(F)c1,"inconclusive: 28.2 µM [inhibitor, partial curve, poor fit]",
CCOc1ccc(Nc2oc(-c3ccc(COc4ccccc4C)o3)nc2C#N)cc1,"inconclusive: 35.5 µM [inhibitor, single point]",
COc1ccc(C(=O)Oc2cc(C)ccc2C)cc1I,inactive,
CCOc1ccc(-c2nc(CSCC(=O)NCCCN3CCOCC3)c(C)o2)cc1,"inconclusive: 28.2 µM [inhibitor, single point]",
COc1cccc(Nc2ncc(-c3ccccc3OC)c3c2OCC3)c1,"inconclusive: 15.8 µM [inhibitor, partial curve, poor fit]",
Cn1ncc2c(Nc3cccc(Cl)c3)nc(Nc3cccc(Cl)c3)nc21,"inconclusive: 25.1 µM [inhibitor, partial curve, poor fit]",
O=C(CSc1nccn1Cc1ccc(F)cc1)Nc1ccc2c(c1)OCO2,"inconclusive: 15.8 µM [inhibitor, partial curve, poor fit]",
Cc1ccc2nc(-c3ccc(N/C(N)=N/c4nc(C)cc(C)n4)cc3)sc2c1,"inconclusive: 2 µM [inhibitor, full curve, poor fit]",
N#Cc1ccc(S(=O)(=O)N2CCC(C(=O)Nc3ccnn3Cc3ccccc3)CC2)cc1,inactive,
O=C(NCc1ccncc1)c1ccc(-c2ccc(N3CCCCC3)nc2)cc1,"inconclusive: 28.2 µM [inhibitor, partial curve, poor fit]",
Cc1cc(OCC(=O)Nc2nc3ccccc3[nH]2)c2c(C)cc(=O)oc2c1,inactive,
C=CCOc1ccc(C2C(C(=O)c3ccc(C)o3)=C(O)C(=O)N2Cc2cccnc2)cc1 (stereo unspecified),"inconclusive: 28.2 µM [inhibitor, single point]",
